Biological target: T1, FLAG-tagged full-length EED (UniProt O75530 1-441)
T1 construct: EED, full-length, including the N terminus (NT, residues 1-80) and seven WD repeats; also called FLAG-EED; Lenti-FLAG-EED; source: HEK293 cells (HEK293A in the legend), transfected, in lysate
Assay: co-IP; HEK293 cells transfected with HA- and FLAG-tagged constructs; lysed in Pierce IP Lysis Buffer; IP with anti-FLAG (anti-DYKDDDDK magnetic agarose, 4°C overnight) or anti-HA antibody, washed 3x with cold PBS, immunoblot for the other tag
Details: partners not purified

T1 sequence (O75530 whole entry, the tested form may be a part): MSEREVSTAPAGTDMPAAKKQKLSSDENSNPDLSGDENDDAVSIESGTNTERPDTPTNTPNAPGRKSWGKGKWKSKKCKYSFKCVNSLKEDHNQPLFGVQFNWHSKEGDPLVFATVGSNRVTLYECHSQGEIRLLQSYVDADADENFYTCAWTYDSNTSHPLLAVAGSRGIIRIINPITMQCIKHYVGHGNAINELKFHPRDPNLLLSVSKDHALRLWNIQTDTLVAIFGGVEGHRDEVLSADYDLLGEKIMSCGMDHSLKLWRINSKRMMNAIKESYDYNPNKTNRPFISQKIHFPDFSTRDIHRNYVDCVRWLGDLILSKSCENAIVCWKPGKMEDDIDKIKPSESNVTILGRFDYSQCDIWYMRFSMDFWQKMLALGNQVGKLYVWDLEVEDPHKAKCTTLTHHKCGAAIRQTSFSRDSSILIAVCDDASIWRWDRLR

fold over background control (coIP): 30 fold
B1: HA-tagged STAT3 (signal transducer and activator of transcription 3) (natural protein)
chain: not shown
notes: The plasmid is named Lenti-HA-STAT3-GFP; also called HA-STAT3; Lenti-HA-STAT3-GFP; source: HEK293 cells, transfected, in lysate

Source: PMC10009644, “Gene-repressing epigenetic reader EED unexpectedly enhances cyclinD1 gene activation” (Molecular Therapy. Nucleic Acids, 2023)
